Test results taken from the supplement of paper PMC4967469.
The IC50 comes from the fitted curve, where viability falls to half of the control; fits outside the tested doses are given as limits. AUC, from the same fit, is the share of area under the viability curve across the 256-fold dose range; the more sensitive the line, the further below 1. For some assays here: A top dose marked as inferred was derived from the fitted curves, not read from the paper.

How the values were obtained:
Assay in all cases: Viability of human cancer cell lines after 72 h of drug (GDSC screen)
BMS-345541 = compound: Cc1ccc2nc(NCCN)c3ncc(C)n3c2c1 [BMS-345541]; settings: top dose 16 µM
Method: (§1)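 Human cancer cell lines in 384-well plates, medium with 10% serum, drug for 72 h over a 256-fold dose range (nine 2-fold or five 4-fold steps up to the top dose). Adherent lines were fixed and stained with the nucleic acid dye Syto60, suspension lines read with resazurin; signal relative to control wells, capped at 0 and 100%. One two-parameter sigmoid per drug and line, fitted in a mixed model over all curves with the slope shared within a line.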

GSK-650394 = compound: O=C(O)c1ccc(-c2c[nH]c3ncc(-c4ccccc4)cc23)cc1C1CCCC1 [GSK-650394]; settings: top dose 16 µM; top dose inferred
Method: as §1

Bexarotene = compound: C=C(c1ccc(C(=O)O)cc1)c1cc2c(cc1C)C(C)(C)CCC2(C)C [Bexarotene]; settings: top dose 8 µM
Method: as §1

AZD7762 = compound: NC(=O)Nc1cc(-c2cccc(F)c2)sc1C(=O)N[C@H]1CCCNC1 [AZD7762]; settings: top dose 2 µM
Method: as §1

YK 4-279 = compound: COc1ccc(C(=O)CC2(O)C(=O)Nc3c(Cl)ccc(Cl)c32)cc1 [YK 4-279]; settings: top dose 10 µM
Method: as §1

Etoposide = compound: COc1cc([C@@H]2c3cc4c(cc3[C@@H](O[C@@H]3O[C@@H]5CO[C@@H](C)O[C@H]5[C@H](O)[C@H]3O)[C@H]3COC(=O)[C@H]23)OCO4)cc(OC)c1O [Etoposide]; settings: top dose 16 µM
Method: as §1

XAV 939 = compound: Oc1nc(-c2ccc(C(F)(F)F)cc2)nc2c1CSCC2 [XAV 939]; settings: top dose 5 µM; top dose inferred
Method: as §1

NPK76-II-72-1 = compound: COc1cc(C(=O)NC2CCN(C)CC2)ccc1Nc1ncc2c(n1)N(C1CCCC1)C(C)CC(=O)N2C [NPK76-II-72-1]; settings: top dose 10.24 µM; top dose inferred
Method: as §1

Cell Line | AUC (BMS-345541) | IC50 (BMS-345541) [µM] | AUC (GSK-650394) | IC50 (GSK-650394) [µM] | AUC (Bexarotene) | IC50 (Bexarotene) [µM] | AUC (AZD7762) | IC50 (AZD7762) [µM] | AUC (YK 4-279) | IC50 (YK 4-279) [µM] | AUC (Etoposide) | IC50 (Etoposide) [µM] | AUC (XAV 939) | IC50 (XAV 939) [µM] | AUC (NPK76-II-72-1) | IC50 (NPK76-II-72-1) [µM]
CAL-39 (cervix, adherent) | 0.925 | > 16 | 0.697 | 3.66 | 0.95 | > 8 | 0.909 | > 2 | 0.611 | 1.28 | 0.723 | 4.41 | 0.963 | > 5 | 0.966 | > 10.2
CAL-51 (breast, adherent) | 0.941 | > 16 | 0.733 | 4.13 | 0.951 | > 8 | 0.745 | 0.558 | 0.648 | 1.51 | 0.448 | 0.735 | 0.949 | > 5 | 0.991 | > 10.2
CAL-72 (osteosarcoma, adherent) | 0.984 | > 16 | 0.957 | > 16 | 0.908 | > 8 | 0.66 | 0.378 | 0.74 | 3.5 | 0.907 | > 16 | 0.977 | > 5 | 0.984 | > 10.2
CAL-78 (chondrosarcoma, adherent) | 0.974 | > 16 | 0.986 | > 16 | 0.922 | > 8 | 0.698 | 0.492 | 0.764 | 4.13 | 0.899 | > 16 | 0.985 | > 5 | 0.842 | 8.81
CAL-85-1 (breast, adherent) | 0.861 | > 16 | 0.783 | 8.82 | 0.94 | > 8 | 0.864 | > 2 | 0.757 | 4.34 | 0.608 | – | 0.953 | > 5 | 0.951 | > 10.2
CAL-120 (breast, adherent) | 0.964 | > 16 | 0.881 | > 16 | 0.949 | > 8 | 0.901 | > 2 | 0.777 | 5.23 | 0.784 | 8.93 | 0.944 | > 5 | 0.792 | 6.19
CAS-1 (glioma, adherent) | 0.974 | > 16 | 0.777 | 9.02 | 0.935 | > 8 | 0.799 | 1.39 | 0.862 | > 10 | 0.796 | 10.9 | 0.93 | > 5 | 0.893 | > 10.2
CCF-STTG1 (glioma, adherent) | 0.988 | > 16 | 0.797 | 7.6 | 0.875 | 7.96 | 0.693 | 0.436 | 0.751 | 3.32 | 0.748 | 5.19 | 0.987 | > 5 | 0.911 | > 10.2
CCK-81 (large intestine, adherent) | 0.845 | 10.5 | 0.932 | > 16 | 0.969 | > 8 | 0.797 | 0.879 | 0.955 | > 10 | 0.958 | > 16 | 0.989 | > 5 | 0.92 | > 10.2
CESS (acute myeloid leukaemia, suspension) | 0.887 | 13.5 | 0.85 | 9.54 | 0.953 | > 8 | 0.905 | > 2 | 0.637 | 1.4 | 0.343 | 0.394 | 0.976 | > 5 | 0.336 | 0.241
CHL-1 (melanoma, adherent) | 0.884 | 15.5 | 0.67 | 2.88 | 0.897 | > 8 | 0.74 | 0.577 | 0.655 | 1.64 | 0.37 | 0.449 | 0.976 | > 5 | 0.667 | 1.81
CHSA0011 (chondrosarcoma, adherent) | 0.866 | > 16 | 0.98 | > 16 | 0.98 | > 8 | 0.706 | 0.611 | 0.862 | > 10 | 0.972 | > 16 | 0.948 | > 5 | 0.946 | > 10.2
CHSA0108 (chondrosarcoma, adherent) | 0.873 | > 16 | 0.961 | > 16 | 0.973 | > 8 | 0.669 | 0.4 | 0.781 | 4.82 | 0.731 | 5.1 | 0.957 | > 5 | 0.715 | 2.89
CHSA8926 (chondrosarcoma, adherent) | 0.906 | > 16 | 0.977 | > 16 | 0.98 | > 8 | 0.769 | 1.08 | 0.726 | 3.66 | 0.833 | > 16 | 0.961 | > 5 | 0.815 | 8.94
COLO-320-HSR (large intestine, suspension) | 0.704 | 3.43 | 0.951 | > 16 | 0.982 | > 8 | 0.677 | 0.362 | 0.802 | 4.16 | 0.824 | 7.9 | 0.987 | > 5 | 0.886 | 8.68
COLO-668 (small cell lung carcinoma, adherent) | 0.69 | 3.42 | 0.94 | > 16 | 0.968 | > 8 | 0.888 | > 2 | 0.927 | > 10 | 0.611 | 2.01 | 0.988 | > 5 | 0.899 | > 10.2
COLO-678 (large intestine, semi-adherent) | 0.952 | > 16 | 0.985 | > 16 | 0.98 | > 8 | 0.93 | > 2 | 0.97 | > 10 | 0.972 | > 16 | 0.983 | > 5 | 0.978 | > 10.2

Cell Line | AUC (BMS-345541) | IC50 (BMS-345541) [µM] | AUC (GSK-650394) | IC50 (GSK-650394) [µM] | AUC (Bexarotene) | IC50 (Bexarotene) [µM] | AUC (AZD7762) | IC50 (AZD7762) [µM] | AUC (YK 4-279) | IC50 (YK 4-279) [µM] | AUC (Etoposide) | IC50 (Etoposide) [µM] | AUC (XAV 939) | IC50 (XAV 939) [µM] | AUC (NPK76-II-72-1) | IC50 (NPK76-II-72-1) [µM]
COLO-679 (melanoma, adherent) | 0.839 | 12.9 | 0.72 | 4.57 | 0.984 | > 8 | 0.541 | 0.164 | 0.829 | 7.28 | 0.261 | 0.189 | 0.95 | > 5 | 0.979 | > 10.2
COLO-680N (oesophagus, adherent) | 0.905 | > 16 | 0.983 | > 16 | 0.974 | > 8 | 0.918 | > 2 | 0.901 | > 10 | 0.769 | 7.17 | 0.985 | > 5 | 0.984 | > 10.2
COLO-684 (endometrium, suspension) | 0.7 | 3.95 | 0.806 | 9.34 | 0.971 | > 8 | 0.626 | 0.291 | 0.935 | > 10 | 0.828 | 11.5 | 0.966 | > 5 | 0.808 | 6.1
COLO-783 (melanoma, adherent) | 0.912 | > 16 | 0.991 | > 16 | 0.991 | > 8 | 0.638 | 0.296 | 0.788 | 4.2 | 0.99 | > 16 | 0.99 | > 5 | 0.971 | > 10.2
COLO-824 (breast, adherent) | 0.909 | > 16 | 0.93 | > 16 | 0.978 | > 8 | 0.898 | > 2 | 0.853 | 8.04 | 0.919 | > 16 | 0.978 | > 5 | 0.767 | 3.88
COR-L23 (large cell lung carcinoma, adherent) | 0.895 | > 16 | 0.688 | 3.31 | 0.922 | > 8 | 0.698 | 0.443 | 0.785 | 4.14 | 0.782 | 6.48 | 0.946 | > 5 | 0.816 | 5.49
COR-L88 (small cell lung carcinoma, adherent) | 0.901 | > 16 | 0.951 | > 16 | 0.968 | > 8 | 0.825 | 1.52 | 0.952 | > 10 | 0.877 | > 16 | 0.976 | > 5 | 0.617 | 1.43
COR-L95 (small cell lung carcinoma, adherent) | 0.861 | > 16 | 0.981 | > 16 | 0.978 | > 8 | 0.804 | 1.19 | 0.959 | > 10 | 0.863 | > 16 | 0.985 | > 5 | 0.904 | > 10.2
COR-L279 (small cell lung carcinoma, suspension) | 0.897 | > 16 | 0.899 | > 16 | 0.972 | > 8 | 0.914 | > 2 | 0.865 | 7.26 | 0.555 | 1.39 | 0.983 | > 5 | 0.801 | 4.37
CP66-MEL (melanoma, adherent) | 0.888 | > 16 | 0.977 | > 16 | 0.897 | > 8 | 0.809 | 1.23 | 0.736 | 3.29 | 0.726 | 4.85 | 0.981 | > 5 | 0.962 | > 10.2
CPC-N (small cell lung carcinoma, suspension) | 0.911 | > 16 | 0.825 | 10.8 | 0.902 | > 8 | 0.625 | 0.285 | 0.805 | 5.6 | 0.865 | > 16 | 0.945 | > 5 | 0.869 | > 10.2
CS1 (bone, adherent) | 0.871 | > 16 | 0.885 | > 16 | 0.875 | > 8 | 0.548 | 0.172 | 0.753 | 3.7 | 0.788 | 7.94 | 0.904 | > 5 | 0.717 | 2.87
CTB-1 (B-cell lymphoma, suspension) | 0.687 | 4.07 | 0.857 | > 16 | 0.966 | > 8 | 0.495 | 0.12 | 0.88 | > 10 | 0.611 | 2.26 | 0.906 | > 5 | 0.668 | 2.24
CTV-1 (acute myeloid leukaemia, suspension) | 0.552 | 1.34 | 0.867 | 9.9 | 0.975 | > 8 | 0.382 | 0.0633 | 0.594 | 1.07 | 0.347 | 0.414 | 0.98 | > 5 | 0.569 | 0.949
Ca9-22 (head and neck, adherent) | 0.933 | > 16 | 0.872 | 13.4 | 0.949 | > 8 | 0.759 | 0.653 | 0.664 | 1.71 | 0.621 | 2.1 | 0.987 | > 5 | 0.829 | 5.76
Ca-Ski (cervix, adherent) | 0.714 | 4.39 | 0.864 | > 16 | 0.934 | > 8 | 0.485 | 0.113 | 0.582 | 1.07 | 0.62 | 2.23 | 0.948 | > 5 | 0.76 | 4.01
